Each structure is given as a SMILES string. This is one part of the list. Shown are side measurements of this screen, not its main read-out; they come without a call. Most of these compounds were active or inconclusive in the main read-out, so they are no random draw.

The inhibition is the drop in the measured response relative to a control, in per cent.

The nature of this test: growth inhibition of WT strain, primary screen, mitochondrial fusion inhibitor project, WT and mutant strains, chemical genetic (AID 1362). Also: tested in S. cerevisiae. The settings on record: mitochondrial fusion phenotypic screen, at 10 µM.
Take `S=C(NCCc1ccccc1)N1CCc2ccccc2C1`: the inhibition was determined as 61.3%.

As to `Cc1ccc(/C=C/C(=O)N2CCC(Cc3ccccc3)CC2)cc1`, the inhibition was determined as 14.1%. For the compound `CCn1c(=N)n(CC(=O)C23CC4CC(CC(C4)C2)C3)c2ccccc21`, the inhibition was 76.2%. On to `O=C(CN1CC[n+]2c(-c3cccs3)csc21)c1ccc(-c2ccccc2)cc1`, for which the inhibition turned out to be 67.9%.

For `C(=N\Nc1nc(N2CCCCC2)nc(N2CCCCC2)n1)/c1c[nH]c2ccccc12`, the inhibition is 32%. For the compound `CCOC(=O)c1c(NS(=O)(=O)c2ccc(Br)cc2)sc2c1CCC2`, the inhibition was -0.97%. As to `CCCCOc1ccc(CONS(=O)(=O)c2ccc(NC(C)=O)cc2)cc1Cl`, the inhibition was 14.8%. In the case of `CC1CCN(C(C)C(=O)Nc2ccccc2-c2ccccc2)CC1` (configuration not stated), the inhibition came out at 7.86%. In the case of `Cc1ccc(-n2nnnc2C(Cl)c2nnnn2-c2ccc(C)cc2)cc1`, the inhibition was 65.5%. Under `O=C(c1sc2cc(F)ccc2c1Cl)N1CCN(c2ccccc2)CC1` stands 37.5%; under `COc1ccc(C2CC(c3ccccc3)=NN2C(=O)c2cccs2)cc1` (configuration not stated), 58.4%. In the case of `CCOc1cc(C2Nc3ccccc3C(=O)N2c2ccccc2OC)ccc1O` (configuration not stated), the inhibition is -5.39%. Turning to `CCC(C)c1ccc(NC(=S)Nc2ccc(OC)cc2C)cc1` (configuration not stated), the inhibition is 0.44%. Turning to `O=C(/C=C/c1ccc2c(c1)OCCCO2)c1ccccc1O`, the inhibition stood at 54.8%. Turning to `Cc1cc(C)c(Cc2c(C)nc3c(C(=O)NCc4ccco4)cnn3c2C)c(C)c1`, the inhibition is 35.5%. Under `CCc1nnc(NC(=O)Nc2ccccc2OC)s1` stands -2.97%; under `Cc1ccc(-n2[nH]c(C)c(/C=N/Nc3ccc([N+](=O)[O-])cc3[N+](=O)[O-])c2=O)cc1C`, 59.4%; under `O=C(c1ccc(Cl)cc1)c1c[nH]c(C(=O)C(Cl)(Cl)Cl)c1`, 62.7%. Take `COC(=O)c1ccc(/C=C(\C#N)c2nc3ccccc3s2)cc1`: the inhibition was determined as 5.89%. With `Cc1cc(C)c2nc(/N=C(\N)NC(=O)Nc3ccccc3)nc(C)c2c1`, the inhibition is 54.9%. Consider `CC(C)CCNC(=S)Nc1ccc([N+](=O)[O-])cc1`, for which the inhibition was 72.8%. As to `CSc1nc(Cl)c(Cc2ccc(OC(C)C)cc2)c(N(C)C)n1`, the inhibition worked out at 18.1%. Take `CCN1CCN(CCNC(=O)c2ccc(/C=C3/Sc4ccccc4N(Cc4cccc(Cl)c4)C3=O)cc2)CC1`: the inhibition is 71.7%. Turning to `CCN1C(=O)S/C(=C/c2c(OCc3ccc(C(=O)O)cc3)ccc3ccccc23)C1=O`, the inhibition was -15.6%. For `O=S(=O)(N1CCCCC1)N1CCN(c2cc(Cl)ccc2Cl)CC1`, the inhibition worked out at 26.3%. Under `O=C(c1cnc(-c2ccc(Cl)cc2)s1)c1ccc(Cl)cc1Cl` stands 12.1%.

As to `CN1/C(=C\C(=S)NC(=O)c2cccc(Br)c2)C(C)(C)c2ccccc21`, the inhibition came out at 19.2%. With `N#CC1=C(N)NC(SCc2ccc(Br)cc2)=C(C#N)C12CCCCC2` the figure was -11.5%. As to `CSc1cccc(NC(=S)N(CCCN2CCCC2)Cc2cccn2Cc2ccc(Cl)cc2)c1`, the inhibition came out at 64.7%. For `O=C(O)Cn1c(CC(=O)N2CCCC2)nc2ccccc21`, the inhibition was 6.9%. Under `CCOP(=O)(OCC)c1nc(/C=C/c2ccccc2)oc1NCc1ccccc1` stands 0.64%; under `CC1=CC(C)(C)N(C(=O)c2ccc(F)cc2)c2cc3c(cc21)OCO3`, 12.1%; under `Cc1nc(C(=O)N2CCc3c([nH]c4ccccc34)C2c2cc(F)ccc2F)cs1` (configuration not stated), 54.5%.

Regarding `CCSc1ncc(/C=N/Nc2ccccc2)n1C`, the inhibition was 60.5%. With `CCOc1cccc(OCCCNCCCOC)c1` the figure was -27.7%. Consider `CCc1ccc(CN(C)C(=O)CCc2nc3ccccc3n(-c3ccc(OC)cc3)c2=O)cc1`, for which the inhibition is 26.1%. With `COC(=O)c1ccc(OC(=O)CCN2c3ccccc3Sc3ccccc32)cc1` the figure was 30.9%; with `CCOc1ccccc1C(=O)Nc1ccccc1-c1ccccc1`, 40.5%; with `CC(C)C(=O)N(c1cc2sc(=O)oc2c2ccccc12)S(=O)(=O)c1cccs1`, 6.98%. In the case of `COCCN(C(=S)Nc1cccc(C)c1)C(C)c1cccs1` (configuration not stated), the inhibition is -6.08%. For the compound `O=C(O)c1ccccc1C(=O)NNc1ccc(Cl)cc1`, the inhibition worked out at 50.3%. On to `O/N=C/c1cc(Cl)ccc1OCc1cccc2ccccc12`, for which the inhibition was 94.7%. `Cc1[nH][nH]c(=O)c1C(c1c(C)[nH][nH]c1=O)c1cn(Cc2ccc(Cl)c(Cl)c2)c2ccccc12`: the inhibition is -3.14%. On to `OC(COCC(F)(F)C(F)(F)C(F)(F)C(F)F)Cn1c2ccc(Cl)cc2c2cc(Cl)ccc21` (configuration not stated), for which the inhibition amounted to 60.5%. Consider `Clc1ccc2c(N/N=C/c3cccc(Br)c3)ccnc2c1`, for which the inhibition amounted to 96.4%. With `Cc1ccc(C2=NN(S(=O)(=O)c3ccccc3)C(c3ccccc3O)C2)cc1` (configuration not stated), the inhibition turned out to be 34.4%. Under `Cc1c(C(=O)NN2CCCCC2)nn(-c2ccc(Cl)cc2Cl)c1-c1ccc(I)cc1` stands 49.7%; under `CCCCc1c(C)nn(-c2nnc3c4ccccc4n(CC)c3n2)c1C`, 41.7%; under `O=C1c2ccccc2C2=Nc3ccccc3SC(c3cccc(F)c3)C12` (configuration not stated), 73.7%.

In the case of `CC(=O)CCc1oc2c([N+](=O)[O-])cccc2c1-c1ccc(C)o1`, the inhibition was determined as 42.1%. With `CC1CCCCN1C(=O)Cn1cc(/C=C2/C(=O)Nc3ccccc32)c2ccccc21` (configuration not stated), the inhibition worked out at 2.65%.

As for `O=C(CCc1ccc(Oc2cc([N+](=O)[O-])cc([N+](=O)[O-])c2)cc1)N1CCCCCC1`, the inhibition turned out to be 36.8%. On to `Cc1ccc(NC(=O)c2cc(-c3ccccc3)nn2-c2ccccc2)cc1`, for which the inhibition was 26.4%. Under `Cc1c(CN2CCC(CO)(CCOc3ccccc3)CC2)[nH]c2c(Cl)cccc12` stands 91.1%. Regarding `Cc1ccc(-n2cc(-c3ccccc3)c3c(N4CCOCC4)ncnc32)cc1`, the inhibition was determined as 8.62%. As for `COc1ccc(NC(=O)c2cc(-c3cc(C)cc(C)c3O)n[nH]2)cc1Cl`, the inhibition came out at 52.5%. As for `Oc1nc(Nc2cccc(Cl)c2)sc1/C=C1\C=Nc2ccccc21`, the inhibition stood at 42.3%. With `CCCn1c(N2CCC(Cc3ccccc3)CC2)nc2c1c(=O)[nH]c(=O)n2C`, the inhibition was -1.39%. With `CCN(CC)c1ncnc2scc(C3COc4ccccc4O3)c12` (configuration not stated), the inhibition turned out to be 27.3%.

On to `Cc1onc(-c2ccccc2Cl)c1C(=O)Nc1nnc(-c2ccc(Br)cc2)s1`, for which the inhibition was 16.6%.

With `COC(=O)c1cn(N(C)c2ncc(C(F)(F)F)cc2Cl)c(=O)c2ccccc12`, the inhibition stood at 22.1%.

Turning to `O=[N+]([O-])c1ccc(Nc2nc(NC3CCCCC3)nc(N3CCCC3)n2)cc1`, the inhibition stood at 44%. Regarding `CC(C)Oc1ccc(C(=O)NC2(C(F)(F)F)NC(=O)N(CCCc3ccccc3)C2=O)cc1` (configuration not stated), the inhibition worked out at 3.08%. Under `Cc1cc(Cl)ccc1OCC(=O)NCCCCc1ccccc1` stands 27.4%. As to `Cc1cc(C)c2nc(N3CCC(C(=O)NCCCN4CC(C)CC(C)C4)CC3)sc2c1` (configuration not stated), the inhibition was found to be 30.5%. In the case of `Cc1cccc(OCC(=O)Nc2ccc3nc(C)sc3c2)c1`, the inhibition came out at 58.1%.

On to `Clc1ccc2c(N/N=C/c3ccc(Br)cc3)ccnc2c1`, for which the inhibition stood at 98.3%.

For the origin of these results see PubChem BioAssay AID1362 (SRMLSC, 2008).
